According to ChEMBL document CHEMBL4888484, “Replenishing the malaria drug discovery pipeline: Screening and hit evaluation of the MMV Hit Generation Library 1 (HGL1) against asexual blood stage Plasmodium falciparum ,using a nano luciferase reporter read-out” (2022):
Hit rate of the full screen: of about 150,000 compounds, about 540 (0.36%) showed an effect of 50% or more. The list shows a part of the results.

tested on: Plasmodium falciparum; test: Primary screen in NF54 nanoGlo assay, in single point, at 2uM, 72h; a lower Z score goes with more inhibition; format: functional, Erythrocyte; conditions: timepoint 72 hour

| Structure (SMILES) | % Inhibition | Z score |
| --- | --- | --- |
| COc1cc(C(=O)N2CCN(C(=O)N3CCCC3)CC2)cc(OC)c1Br | 19% | -2.38 |
| C[C@H](NC(=O)CC1CCCCC1)C(=O)Nc1ncccc1Cl | -2% | 0.3 |
| Cn1c(CN2CCOC[C@@]23CCOC3)nnc1C1CC1 | 31% | -1.4 |
| CN(C)C(=O)CN(C)S(=O)(=O)CC1CCCCC1 | 1% | -0.14 |
| Cc1cccc(S(=O)(=O)Nc2[nH]nc(Nc3ccc(F)c(C)c3)c2C#N)c1 | -6% | 0.83 |
| CC1(C)CC(=O)N(Cc2cncn2Cc2ccccc2)C1 | -8% | 0.99 |
| C[C@]1(Cc2nnn[nH]2)CC1(Cl)Cl | -5% | 0.62 |
| CC(C)C(=O)N1CCN(c2nc3ccccc3c3nnc(-c4ccccc4F)n23)CC1 | 8% | -0.91 |
| Fc1ccc(C2CCC(N[C@H](c3ccc(F)cc3)c3ncc[nH]3)CC2)cc1 (stereo partly drawn) | 18% | -3.43 |
| Cc1cnc(C(=O)N2CCC[C@H](n3c(C)cnc3-c3ccccc3)C2)cn1 | 3% | -0.39 |
| Cc1nc(C2CC2)ccc1C(=O)N(C)[C@H]1CCN(C(C)C)C1 | -8% | 1.07 |
| Cc1ccc(OCCOCn2c(C)cc(=O)[nH]c2=O)cc1 | -35% | 4.06 |
| Cc1noc(C)c1N(C)C(=O)Nc1cccc(COC(C)C)c1C | -2% | 0.22 |
| Cc1nn(C)cc1C(=O)NCCC(c1ccccc1)c1ccccc1 | -5% | 1.02 |
| Cc1cc(C)c(S(=O)(=O)Nc2ccccc2CCc2nc3ccccc3n2C)cc1C | -21% | 2.5 |
| CC(C)(C)C1OCCCC1CNc1nccnc1C#N (stereo not drawn) | 3% | -0.52 |
| C[C@H](O)Cc1cn(C2CCN(C(=O)c3ccc4sccc4c3)CC2)nn1 | -10% | 1.37 |
| Cc1cc(C(=O)N[C@@H](C)C(C)(F)F)on1 | 2% | -0.2 |
| CCn1ccnc1CNC(=O)c1ccc(S(=O)(=O)NC[C@@H](C)O)cc1 | -18% | 2.11 |
| CCc1cccnc1-c1noc(C[C@H]2CNCCS2(=O)=O)n1 | -14% | 2.75 |
| Cc1cc(C)n(-c2ccc(C(=O)N3CCC[C@H](c4[nH]ncc4-c4cccc(F)c4)C3)cc2)n1 | -13% | 1.71 |
| O=C(Nc1ccc2c(c1)OCCCO2)c1cccc2ccccc12 | -16% | 2.44 |
| COc1ccc(Cc2n[nH]c(C[C@H]3CCCOC3)n2)cc1OC | 7% | -1.41 |
| Cc1nnnn1CCC(=O)NC(Cc1ccncc1)[C@H]1C[C@@H](O)C1 (stereo partly drawn) | -13% | 1.49 |
| CCc1cc(=O)n(Cc2cccnc2)c(N2CCOCC2)n1 | -1% | 0.11 |
| CCOc1ccc(OCc2n[nH]c(CN3CCCC3=O)n2)cc1 | -4% | 0.85 |
| COc1ccc(S(=O)(=O)N2CC[C@H](S(=O)(=O)Cc3ccco3)C2)cc1Cl | 1% | -0.16 |

| Structure (SMILES) | % Inhibition | Z score |
| --- | --- | --- |
| O=C(NCCC1=CCCCCC1)N1CC(S(=O)(=O)N2CCNCC2)C1 | 2% | -0.25 |
| CC(C)CC1OCCCC1NC(=O)C1CCCO1 (stereo not drawn) | -16% | 1.41 |
| CC(NCC(C)(O)c1cnn(C)c1)c1ccc(N2CCCC2=O)cc1 (stereo not drawn) | -9% | 0.87 |
| O=C(Nc1cccn2c(C3CCC3)nnc12)c1ccc2c(c1)OCO2 | -1% | 0.11 |
| COc1cc(OC)c(NC(=O)CC(C)=O)cc1Cl | 7% | -1.36 |
| CNc1ccccc1-c1nc2cc3ccccc3cc2n(C)c1=O | 2% | -0.42 |
| Cc1cnc(C2CCN(C(=O)CCS(=O)(=O)c3ccccc3)CC2)n1[C@H](C)CO | -7% | 1.2 |
| COCCn1cncc1Cn1ccnc1-c1ccc2nonc2c1 | -9% | 1.88 |
| CC(=O)c1csc(NC(=O)c2ccc3ncsc3c2)n1 | -6% | 0.88 |
| O=C(O)c1nccnc1NCCCC1CCCC1 | -1% | 0.15 |
| CCCc1nnc2sc(-c3ncccc3OC)nn12 | 4% | -0.66 |
| CCC(C)(C)C(=O)Nc1ccc(Br)cc1F | -10% | 1.99 |
| O=C(Nc1ccn(-c2ccccc2)n1)N[C@@H](CCO)c1cccs1 | -9% | 1.62 |
| Cc1ncsc1C(=O)N1CCC(n2cc(-c3ccccc3)nn2)CC1 | -9% | 1.39 |
| O=C(c1ccnn1CCO)N1CCCCCCC1 | -11% | 1.11 |
| COC[C@@H]1CCC[C@@H]1NS(=O)(=O)c1cccc(C(=O)NC2CCC2)c1 | -7% | 1.38 |
| CCS(=O)(=O)N(CCN1CCCCC1)C1CN(C(=O)c2ccc(Cl)cc2OC)C1 | -6% | 0.82 |
| CC(C)(C)N1C(=O)CC(NC(N)=O)C1c1ccc(Cl)c(F)c1 (stereo not drawn) | -5% | 0.53 |
| CCOCCC1(CNC(=O)C2(CNC(=O)OC(C)(C)C)CCCC2)CCCC1 | -7% | 0.65 |
| O=C(Cc1cccc(O)c1)NC1CCN(C2CCS(=O)(=O)CC2)CC1 | -17% | 1.8 |
| COc1ccc(Br)cc1CCC(=O)N1CC[C@H](N2CCc3ccccc3C2)C1 | 2% | -0.33 |
| CCC(CC)C(=O)N1CCN(C(=O)c2ccon2)[C@H]2CS(=O)(=O)C[C@H]21 | -6% | 1.02 |
| CC1CN(CC(O)COc2ccccc2-c2ccccc2)CC(C)O1 (stereo not drawn) | -19% | 2.24 |
| CC(C)NC(=O)O[C@@H]1CC[C@]2(C)C(CC[C@@H](O)[C@H]2CC(=O)NCc2ccco2)[C@]1(C)CO (stereo partly drawn) | -11% | 1.38 |
| C[C@@H](NC(=O)c1ccc2c(c1)OCO2)c1onc(-c2ccc(Cl)cc2)c1C(=O)O | 6% | -0.72 |
| COC(=O)c1coc(CN[C@H]2CC(=O)N(c3ccccc3)C2)n1 | -9% | 1.23 |
| CCn1cnnc1CCNc1cc(C)c2cc(OC)c(OC)cc2n1 | -9% | 1.31 |
